Consider 44 sequences from the supplement of paper PMC11417369.

± gives the standard deviation of the averaged measurements. The list shows a part of the results.

For the assay, the system named is PfAP2-I AP2 domain 3 (GST-tagged). Put plainly: gcPBM binding intensity (ln(normalized median fluorescence intensity)); higher = stronger DNA binding. The essentials: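 After 1 h on an Agilent 4 × 180k array of primer-extended double-stranded 36-bp intergenic genomic probes and negative controls, bound GST-tagged P. falciparum DNA-binding domains were detected with Alexa488 anti-GST antibody and scanned at 488 nm. The domains had been expressed in E. coli, and binding took place in 1× PBS with 1% milk, 0.2 mg/ml BSA, 0.5% salmon testes DNA and 0.03% Triton X-100. Binding intensity is the highest Masliner-normalised natural-log median intensity across replicate spots of either probe orientation.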
In the case of “TTTTTATTTTTTTACAGTACATAAAATAAATAAATA [XGTACX_site6596]”, the “gcPBM binding intensity (ln)” value amounted to 7.82 ± 0.36.
With “TTTTTTTTATGGAAACGTACATACATACATTAAAGA [XGTACX_site7401]”, the “gcPBM binding intensity (ln)” value is 7.83 ± 0.52.
As for “TATTTATATATTTATGCATGTTATAGGCAAAAATGT [TGCATGCA_site397]”, the “gcPBM binding intensity (ln)” value is 7.89 ± 0.64.
Then “TATATTGATGATGATAGTACGTATGAATACAAAAAA [XGTACX_site4]”, with 7.88 ± 0.65.
Then “CATAATAAGTATAACGTTAGTTACAAACAGCTTGTT [CACACA_negctrl_site937]”, with 7.53 ± 0.74; and “TTTTTAAATAAATGTTTTTATTATATACATATCAAT [TGCATGCA_negctrl_site423]”, with 7.33 ± 0.62; and “AAAATAATGTATATAGTGCAAATGAAAACGAAAAAA [GTGCAC_site9455]”, with 10.32 ± 0.085.
Consider TATTATTCAAAATTTGTGCACAAAATTAAAGGAACA, for which the “gcPBM binding intensity (ln)” value was determined as 10.8 ± 0.27.
Take “TTTGTTTTTTTGAGAGTGCAATATATATAAAAAGGG [GTGCAC_site9691]”: the “gcPBM binding intensity (ln)” value was 11.2 ± 0.64.
As to “TTGGTGATATTTTTCTCACACATTTACCAGAGATGT [CACACA_site4684]”, the “gcPBM binding intensity (ln)” value was 7.63 ± 0.52.
As for “ATTAGATATGTAAACTAAAATTATATTCATGATAAT [TGCATGCA_negctrl_site182]”, the “gcPBM binding intensity (ln)” value is 7.44 ± 0.45.
As for “TCTAACAACATGCGCACACACATGAATATTCATATT [CACACA_site1540]”, the “gcPBM binding intensity (ln)” value worked out at 8.63 ± 0.33.
In the case of “ATATTTTTATTTTCTTTACACACCACATAATTTTTT [CACACA_site4060]”, the “gcPBM binding intensity (ln)” value is 8.35 ± 0.47.
As for “TCACATCTTATATACTGTACATTTCGAATATAAATT [XGTACX_site2508]”, the “gcPBM binding intensity (ln)” value came to 8.01 ± 0.59.
Then “TTTCTTTTACATATTTGTACATATATAAATTTATAT [XGTACX_site1787]”, with 8.37 ± 0.48; and “AAAAAAAAAAAAATATGTACTTATTTTTATGTTAAA [XGTACX_site8802]”, with 7.75 ± 0.22.
“TTCTTTAATACTTATTGTACAATATAATAATCACAA [XGTACX_site6364]”: the “gcPBM binding intensity (ln)” value turned out to be 8.26 ± 0.3.
Turning to “TACTATATAAGTAAGGCATGCATGCCGATTTTTTTA [TGCATGCA_site100]”, the “gcPBM binding intensity (ln)” value was 7.45 ± 0.69.
Then “TGAAACCGTTACATGTGTACATATGTTACACATAAT [XGTACX_site7250]”, with 7.83 ± 0.4.
Regarding “TACTTAAAATATTTAACAAATAAATAAATAAATAAA [XGTACX_negctrl_site523]”, the “gcPBM binding intensity (ln)” value worked out at 8.04 ± 1.
As for “ATCAATTTAATTTATTGTACTTGTTTGTTTTTTTAT [XGTACX_site7544]”, the “gcPBM binding intensity (ln)” value turned out to be 7.71 ± 0.51.
In the case of “GATAACATAATATGTTGTACATAAAAATTTTTATCA [XGTACX_site1969]”, the “gcPBM binding intensity (ln)” value was 8.04 ± 0.47.
For “ATAAAGATATGACACACACACATATTATAGATATAT [CACACA_site7434]”, the “gcPBM binding intensity (ln)” value was found to be 8.08 ± 0.4.
On to “AACTTATTTAAATTCACACATATATAAAATACTTAT [CACACA_site4394]”, for which the “gcPBM binding intensity (ln)” value turned out to be 7.8 ± 0.79.
As for “ACATATGACTATAATACACACTTGTATTATTAATAT [CACACA_site6951]”, the “gcPBM binding intensity (ln)” value came out at 7.95 ± 0.73.
Consider “TAATTTAAACAAAAAAGTACAAATTTCTTTTTATTA [XGTACX_site5244]”, for which the “gcPBM binding intensity (ln)” value was 7.32 ± 0.38.
As to “ATTATTTTATTATAGTGTACTTTTTTAATCAAAGGA [XGTACX_site8921]”, the “gcPBM binding intensity (ln)” value was determined as 7.95 ± 0.4.
For the sequence “AATTTTATTACTTTTACACACCTATATATTATTCAT [CACACA_site3273]”, the “gcPBM binding intensity (ln)” value was 8.37 ± 0.4.
As to “TTTTAAAAAAAATATAAAAAAAGAGGAGGGATGGTA [GTGCAC_negctrl_site35]”, the “gcPBM binding intensity (ln)” value was found to be 8 ± 0.49.
Regarding “TACTCATAATATTGATAATTAAAAAGATAAACTATT [XGTACX_negctrl_site299]”, the “gcPBM binding intensity (ln)” value is 7.36 ± 0.37.
Take “ATTTTAATTACATATACACACAAAGGTTCATAACAA [CACACA_site9008]”: the “gcPBM binding intensity (ln)” value came out at 7.9 ± 0.41.
On to TATGTTTTTACGTGTGTGCACTTTGTAGAGATAAGT, for which the “gcPBM binding intensity (ln)” value is 10.3 ± 0.18.
Turning to “GCCAAAAGGATATGCACACACACACCCATATATATA [CACACA_site2198]”, the “gcPBM binding intensity (ln)” value was 9.1 ± 0.23.
Take “CATTATCATGTTTTTTGTACTCATAATAAAAAGCAG [XGTACX_site2056]”: the “gcPBM binding intensity (ln)” value was 8.03 ± 0.21.
Regarding “CAAGGAACCGGACACACACACATAAATGTATTTATA [CACACA_site4574]”, the “gcPBM binding intensity (ln)” value stood at 7.71 ± 0.46.
Turning to “AAAAATGAATTATTTTGTACATATATATATATATAT [XGTACX_site3410]”, the “gcPBM binding intensity (ln)” value is 9.48 ± 0.54.
For “AATAATTGTTAAAGTTGTACTATACGTATATAAGAA [XGTACX_site1432]”, the “gcPBM binding intensity (ln)” value was 8.16 ± 0.32.
Regarding “TATATATAGAAACACACACACACCAAAGCGTAGCGC [CACACA_site62]”, the “gcPBM binding intensity (ln)” value was found to be 7.59 ± 0.69.
Then “ATTTACAAAAGGAAAGTGCAAACATGTGATTAAACA [CACACA_negctrl_site714]”, with 9.34 ± 0.16; and “TTAATTATAAGAAAAAGTACTCATTACATTATAGAA [XGTACX_site678]”, with 7.85 ± 0.21.
On to “ATATAAATATTCCACACACACACAAAAAAAAAAAAA [CACACA_site7678]”, for which the “gcPBM binding intensity (ln)” value is 8.07 ± 0.51.
On to “TAGTCGTTTTTTTAATGTACTCACGCATAATATAAT [XGTACX_site6499]”, for which the “gcPBM binding intensity (ln)” value was 8.04 ± 0.34.
In the case of “AAAGGATATAGACACACACACACATATATATATATA [CACACA_site2200]”, the “gcPBM binding intensity (ln)” value came out at 9.57 ± 0.32.
Then “GTTCAAAATATGAACACACACATATAGATTTATATA [CACACA_site7054]”, with 7.53 ± 0.38.
